The source gives no read counts; variants with many changes may rest on few reads.

Among the data in the RNAGym collection of RNA variant scans (doi:10.1093/nar/gkz1192) are self-cleavage values, retold here.

The chains are these.
B1: CPEB3 Ribozyme (parent)
chain: UAACAGGGGGCCACAGCAGAAGCGUUCACGUCGCAGCCCCUGUCAGAUUCUGGUGAAUCUGCGAAUUCUGCUGUAUAUCUC

In this data set the parent is B1. Kind of data set: self-cleavage, relative activity (ratio to wild type); higher = more cleavage; in vitro, sequencing. In a few lines:
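For each CPEB3 ribozyme variant, relative activity is its cleaved/total read fraction divided by the unmutated ribozyme's. Barcoded error-prone PCR libraries were transcribed by T7 RNA polymerase (5 hours, 37°C) and held in DNase I for 15 min before an EDTA stop, with cleavage occurring throughout. Template-switching reverse transcription and Illumina sequencing were used to read the RNAs. A 5-read minimum applied, and results are the mean of three batches.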
With UAACAGGGGGCCACAGCAGAAGCGUUCACGUCGCAGGCCCGGUCAGAUUCCGGCGAAUCUGCGAAUUCUGCCGUGUAUCUC [C37G U41G U51C U54C U72C A75G], the self-cleavage is 0.18.
Consider UAACAGGGGGCCACAGCAGAAGCGUUCACGUCGCAGUCCCUGUCGGAUUCUGGUGAAUCUGCGUAUCCUGCAGUAUAUCUC [C37U A45G A64U U67C U72A], for which the self-cleavage turned out to be 0.16.
With UAACAGGGGGCCACAGCAGAAGCGUUCACGUCGCACCCCCUAUCAGAUUCUGGUGAAUCUGCGAAUUCUGCUGUUUAUCUC [G36C G42A A75U] the figure was 0.21; with UAACAGGGGGCCACAGCAGAAGCGUUCACGUCGCACCCCCUGUCAGAUUCAGGUGAAUCUGCGAAUUCUGCUGUUUAUCUC [G36C U51A A75U], 0.11.
Next, UAACAGGGGGCCACAGCAGAAGCGUUCACGUCGCACCCCAUGUCAGAUUCUGGAGAAUCUGCGAAUUCUGCUGUAUAUCUC [G36C C40A U54A]: 0.32; UAACAGGGGGCCACAGCAGAAGCGUUCACGUCGCAGACCCUGUCAGACCCUGGUGAAUCUGCGAAUUCUGCAGCAUAUCUC [C37A U48C U49C U72A U74C]: 0.06.
Turning to UAACAGGGGGCCACAGCAGAAGCGUUCACGUCGCAGACACUGUCAGAUUCUGGCGAAUCUGCGAAUUCUGCCGUAUAUCUC [C37A C39A U54C U72C], the self-cleavage stood at 0.13.
For UAACAGGGGGCCACAGCAGAAGCGUUCACGUCGCAUCCCCUGUCAGACUCUGGUGAAUCUGCGUAUUCUGCUGUAUACCUC [G36U U48C A64U U78C], the self-cleavage was determined as 0.06.
Next, UAACAGGGGGCCACAGCAGAAGCGUUCACGUCGCAGACCCUGUCAGAUUCCGGUGAAUCUGCGAAUUCUGCUGUAUGUCUC [C37A U51C A77G]: 0.21.
With UAACAGGGGGCCACAGCAGAAGCGUUCACGUCGCAGGCCCUGUCAGAUUCUGGUGAAUCUGCGAACUCUGCUGUAUAUCCC [C37G U66C U80C] the figure was 0.52; with UAACAGGGGGCCACAGCAGAAGCGUUCACGUCGCAUCCCCUGCCAGAUUCUGGUGAAUCUGCGAAUUCUGCUGUACAUCUC [G36U U43C U76C], 0.14.
With UAACAGGGGGCCACAGCAGAAGCGUUCACGUCGCAUCCCCCGUCAGAUUCUGGUGAAUCUGCGAAUCCUGCUGUAUAUCUC [G36U U41C U67C] the figure was 0.06; with UAACAGGGGGCCACAGCAGAAGCGUUCACGUCGCAGUCCUUGUCAGAUUCUGGUGAACCUGCGAGUUCUGCUGUAUAUCUC [C37U C40U U58C A65G], 0.07; with UAACAGGGGGCCACAGCAGAAGCGUUCACGUCGCACCCCCGGUCAGAUUCUGGUGAAUCAGCGAAUUCUGCUGUAAAUCUC [G36C U41G U60A U76A], 0.09.
Take UAACAGGGGGCCACAGCAGAAGCGUUCACGUCGCAUCCCCUGCCUGAUUCUGGCGAAUCUGCGAAUUCUGCUGUAUAUCUC [G36U U43C A45U U54C]: the self-cleavage amounted to 0.35.
On to UAACAGGGGGCCACAGCAGAAGCGUUCACGUCGCAUCCCCCGUCAGAUUCUGGUGAAUCUGCGAAUUCUGCUGAAUAUCUC [G36U U41C U74A], for which the self-cleavage amounted to 0.6.
With UAACAGGGGGCCACAGCAGAAGCGUUCACGUCGCAGUCCCUGUCUGAUUCAGGUGGAUCUGCGAAUUCUGCUGUUUAUCUC [C37U A45U U51A A56G A75U] the figure was 0.14; with UAACAGGGGGCCACAGCAGAAGCGUUCACGUCGCAGACCCUGCCAGAUUCUGGUGAAUCUGCGAAUUCUGCUGUAUAUCAC [C37A U43C U80A], 0.13.
On to UAACAGGGGGCCACAGCAGAAGCGUUCACGUCGCAGGCCCUGUCAGAUUCUGGAGAAUCUGCGAAUUCAGCUGUAUAUCUG [C37G U54A U69A C81G], for which the self-cleavage was 0.12.
As for UAACAGGGGGCCACAGCAGAAGCGUUCACGUCGCAGUCCCUGUCAGAUUCUGGUGGGUCUGCGAAUUCUGCCGUAUAUCUC [C37U A56G A57G U72C], the self-cleavage is 0.16.
UAACAGGGGGCCACAGCAGAAGCGUUCACGUCGCAGUCCCUGUCAGAUUCUGGUGAAUCUGCGAAUUCUGCUGUUUACCUC [C37U A75U U78C]: the self-cleavage is 0.7.
In the case of UAACAGGGGGCCACAGCAGAAGCGUUCACGUCGCACCCCCAGUCAGAUUCUGGUGAAUCUCCGAAUUCUGCUGUAUAUCUC [G36C U41A G61C], the self-cleavage turned out to be 0.08.
With UAACAGGGGGCCACAGCAGAAGCGUUCACGUCGCAGUCCCUGUCAGAUUCUGGUGAAUCUGCGAAUUCUGCUGUAUCUCUU [C37U A77C C81U] the figure was 0.79.
With UAACAGGGGGCCACAGCAGAAGCGUUCACGUCGCAGACACUGUCAGAUUCUGGUGGAUCUACGAAUUCUGCUGUAUUUCUC [C37A C39A A56G G61A A77U] the figure was 0.11; with UAACAGGGGGCCACAGCAGAAGCGUUCACGUCGCAUCCCCUGCCAGAUUCUGGUGAAUCUGCGAAUUCUGCUGUAUACCUC [G36U U43C U78C], 0.12.
With UAACAGGGGGCCACAGCAGAAGCGUUCACGUCGCAUCCCCUGUCAGAUUCUGGUGAAUCCCCGAACUCUGCUGUAUAUCUC [G36U U60C G61C U66C] the figure was 0.05.
On to UAACAGGGGGCCACAGCAGAAGCGUUCACGUCGCAUCCCCUGUCAGAUUCUGGUGAAUCUGCGAAUUCUGGUGUUUAUCUC [G36U C71G A75U], for which the self-cleavage amounted to 0.11.
Turning to UAACAGGGGGCCACAGCAGAAGCGUUCACGUCGCACCCCCUGUCAGAUCCUGGUGGAUCUGCGAAUUCUGCUGUAUAUCUC [G36C U49C A56G], the self-cleavage was 0.16.
With UAACAGGGGGCCACAGCAGAAGCGUUCACGUCGCAGGCCCUGUCUGAUUCUGGUGAAUCUGCGAUUUCUGCUGUAUAUCUC [C37G A45U A65U] the figure was 0.46.
With UAACAGGGGGCCACAGCAGAAGCGUUCACGUCGCAGUCCCUGUCAGAUUCUGGUGAGUCUGCGAAUUCUGCUGUAUAUCAC [C37U A57G U80A] the figure was 1.
With UAACAGGGGGCCACAGCAGAAGCGUUCACGUCGCACCCCCUGCCAGAUUCUGGUGAAUCUGCGAAUUCCGCUGUAUAUCUC [G36C U43C U69C] the figure was 0.11.
Consider UAACAGGGGGCCACAGCAGAAGCGUUCACGUCGCAGUACCUGUCAGAUUCUGGUGAAUCUGCGAAUUCUUCUGUAAAUCUC [C37U C38A G70U U76A], for which the self-cleavage amounted to 0.04.
In the case of UAACAGGGGGCCACAGCAGAAGCGUUCACGUCGCAGUCCCUGUCAGAUUCUGGUGAAUCUGCGAGUUUUGCUGUAUAUCUC [C37U A65G C68U], the self-cleavage was found to be 0.24.
With UAACAGGGGGCCACAGCAGAAGCGUUCACGUCGCAGUCCCUGUCUGAUUCUGGCGAACCUGCGAAUCCUGCUGUAUAUCUC [C37U A45U U54C U58C U67C], the self-cleavage was determined as 0.07.
